# Legend:
# [1] = molecular target: T1, SCF receptor (the c-kit receptor) (Homo sapiens (Human), UniProt P10721); assay: cell-based or functional assay
# [2] = molecular target: T1, SCF receptor (the c-kit receptor); assay: cell-based or functional assay; remark: listed apart in the source
Binder,Cell proliferation assays [1] [fold less potent],"% activity, UT-7 bioassay [2] [%]","Half Maximal stimulation concentration (ng/ml), UT-7 bioassay, 3H-thymidine uptake [2] [ng/mL]"
"rhSCF homodimer with isoaspartic acid in place of asparagine at position 10 (ligand, isoaspartic acid in place of asparagine at position 10 (mature numbering, Met at -1)) not shown",50,,
"SCF met […] (recombinant human met-1 SCF […], wild type) (ligand) not shown",,100,5.4

# The next lines start with the values.
Cell proliferation assays [1] [fold less potent],"% activity, UT-7 bioassay [2] [%]","Half Maximal stimulation concentration (ng/ml), UT-7 bioassay, 3H-thymidine uptake [2] [ng/mL]",Binder
,160,3.2,"SCF met […] N10D, N11D (ligand) not shown"
,154,3.5,SCF met […] N10D (ligand) not shown

# — patent US5885962, “Stem cell factor analog compositions and method” (Amgen Inc., dated 1999)
